Data published in the supplement of paper PMC11876631.
± gives the standard deviation of the averaged measurements. Laboratory Escherichia coli strains with one amino-acid change in an essential protein, pooled on minimal glucose agar with carbenicillin or gentamicin at twice the control MIC (plus kanamycin and chloramphenicol for the plasmids), 48 h. Fold change of barcode share against drug-free plates; higher = less susceptible. Active = above 20 in both replicates (the paper's putatively resistant). '<' = one read or none on drug, '>' = one read or none on a drug-free plate. Shares are relative, so most strains fall below 1 when a few take over. Listed are strains with at least 15 reads on both drug-free plates, and hits; most hits rest on fewer reference reads. Replicate rank correlation about 0.5. Edits are read from barcodes.

Target: Escherichia coli (laboratory strain)
Test: barcode share on antibiotic plates over drug-free plates; higher = less susceptible
Description: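 A pool of E. coli strains, each edited to carry one amino-acid change in an essential protein, was grown for 48 h on minimal glucose agar with or without antibiotic; strain barcodes were sequenced; mean of two replicates.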

[1] = antibiotic: carbenicillin, 2× MIC (3.1 µg/mL)
[2] = antibiotic: gentamicin, 2× MIC (MIC 0.45 µg/mL)

| Protein | fold change of barcode share [1] | fold change of barcode share [2] |
| --- | --- | --- |
| lpxC F129A (protein) MIKQRTLKRIVQATGVGLHTGKKVTLTLRPAPANTGVIYRRTDLNPPVDFPADAKSVRDTMLCTCLVNEHDVRISTVEHLNAALAGLGIDNIVIEVNAPEIPIMDGSAAPFVYLLLDAGIDELNCAKKAVRIKETVRVEDGDKWAEFKPYNGFSLDFTIDFNHPAIDSSNQRYAMNFSADAFMRQISRARTFGFMRDIEYLQSRGLCLGGSFDCAIVVDDYRVLNEDGLRFEDEFVRHKMLDAIGDLFMCGHNIIGAFTAYKSGHALNNKLLQAVLAKQEAWEYVTFQDDAELPLAFKAPSAVLA | 0.512 ± 0.19 | < 0.0125 |
| lpxC F129W (protein) MIKQRTLKRIVQATGVGLHTGKKVTLTLRPAPANTGVIYRRTDLNPPVDFPADAKSVRDTMLCTCLVNEHDVRISTVEHLNAALAGLGIDNIVIEVNAPEIPIMDGSAAPFVYLLLDAGIDELNCAKKWVRIKETVRVEDGDKWAEFKPYNGFSLDFTIDFNHPAIDSSNQRYAMNFSADAFMRQISRARTFGFMRDIEYLQSRGLCLGGSFDCAIVVDDYRVLNEDGLRFEDEFVRHKMLDAIGDLFMCGHNIIGAFTAYKSGHALNNKLLQAVLAKQEAWEYVTFQDDAELPLAFKAPSAVLA | 0.237 ± 0.076 | < 0.00876 |
| lpxC L84A (protein) MIKQRTLKRIVQATGVGLHTGKKVTLTLRPAPANTGVIYRRTDLNPPVDFPADAKSVRDTMLCTCLVNEHDVRISTVEHLNAAAAGLGIDNIVIEVNAPEIPIMDGSAAPFVYLLLDAGIDELNCAKKFVRIKETVRVEDGDKWAEFKPYNGFSLDFTIDFNHPAIDSSNQRYAMNFSADAFMRQISRARTFGFMRDIEYLQSRGLCLGGSFDCAIVVDDYRVLNEDGLRFEDEFVRHKMLDAIGDLFMCGHNIIGAFTAYKSGHALNNKLLQAVLAKQEAWEYVTFQDDAELPLAFKAPSAVLA | 1.12 ± 0.48 | 0.00434 ± 0.0024 |
| lpxC L84Q (protein) MIKQRTLKRIVQATGVGLHTGKKVTLTLRPAPANTGVIYRRTDLNPPVDFPADAKSVRDTMLCTCLVNEHDVRISTVEHLNAAQAGLGIDNIVIEVNAPEIPIMDGSAAPFVYLLLDAGIDELNCAKKFVRIKETVRVEDGDKWAEFKPYNGFSLDFTIDFNHPAIDSSNQRYAMNFSADAFMRQISRARTFGFMRDIEYLQSRGLCLGGSFDCAIVVDDYRVLNEDGLRFEDEFVRHKMLDAIGDLFMCGHNIIGAFTAYKSGHALNNKLLQAVLAKQEAWEYVTFQDDAELPLAFKAPSAVLA | 0.966 ± 0.091 | – |
| aroD I11W (protein) MKTVTVKDLVWGTGAPKIIVSLMAKDIASVKSEALAYREADFDILEWRVDHYADLSNVESVMAAAKILRETMPEKPLLFTFRSAKEGGEQAISTEAYIALNRAAIDSGLVDMIDLELFTGDDQVKETVAYAHAHDVKVVMSNHDFHKTPEAEEIIARLRKMQSFDADIPKIALMPQSTSDVLTLLAATLEMQEQYADRPIITMSMAKTGVISRLAGEVFGSAATFGAVKKASAPGQISVNDLRTVLTILHQA | 0.505 ± 0.13 | < 0.00974 |
| lpxC I186A (protein) MIKQRTLKRIVQATGVGLHTGKKVTLTLRPAPANTGVIYRRTDLNPPVDFPADAKSVRDTMLCTCLVNEHDVRISTVEHLNAALAGLGIDNIVIEVNAPEIPIMDGSAAPFVYLLLDAGIDELNCAKKFVRIKETVRVEDGDKWAEFKPYNGFSLDFTIDFNHPAIDSSNQRYAMNFSADAFMRQASRARTFGFMRDIEYLQSRGLCLGGSFDCAIVVDDYRVLNEDGLRFEDEFVRHKMLDAIGDLFMCGHNIIGAFTAYKSGHALNNKLLQAVLAKQEAWEYVTFQDDAELPLAFKAPSAVLA | 0.396 ± 0.15 | < 0.0175 |
| lpxD F141A (protein) MPSIRLADLAQQLDAELHGDGDIVITGVASMQSAQTGHITFMVNPKYREHLGLCQASAVVMTQDDLPFAKSAALVVKNPYLTYARMAQILDTTPQPAQNIAPSAVIDATAKLGNNVSIGANAVIESGVELGDNVIIGAGCAVGKNSKIGAGSRLWANVTIYHEIQIGQNCLIQSGTVVGADGFGYANDRGNWVKIPQIGRVIIGDRVEIGACTTIDRGALDDTIIGNGVIIDNQCQIAHNVVIGDNTAVAGGVIMAGSLKIGRYCMIGGASVINGHMEICDKVTVTGMGMVMRPITEPGVYSSGIPLQPNKVWRKTAALVMNIDDMSKRLKSLERKVNQQD | 0.342 ± 0.17 | < 0.00634 |
| lpxD F141W (protein) MPSIRLADLAQQLDAELHGDGDIVITGVASMQSAQTGHITFMVNPKYREHLGLCQASAVVMTQDDLPFAKSAALVVKNPYLTYARMAQILDTTPQPAQNIAPSAVIDATAKLGNNVSIGANAVIESGVELGDNVIIGAGCWVGKNSKIGAGSRLWANVTIYHEIQIGQNCLIQSGTVVGADGFGYANDRGNWVKIPQIGRVIIGDRVEIGACTTIDRGALDDTIIGNGVIIDNQCQIAHNVVIGDNTAVAGGVIMAGSLKIGRYCMIGGASVINGHMEICDKVTVTGMGMVMRPITEPGVYSSGIPLQPNKVWRKTAALVMNIDDMSKRLKSLERKVNQQD | 0.395 ± 0.15 | 0.0302 ± 0.032 |
| lpxD F141Q (protein) MPSIRLADLAQQLDAELHGDGDIVITGVASMQSAQTGHITFMVNPKYREHLGLCQASAVVMTQDDLPFAKSAALVVKNPYLTYARMAQILDTTPQPAQNIAPSAVIDATAKLGNNVSIGANAVIESGVELGDNVIIGAGCQVGKNSKIGAGSRLWANVTIYHEIQIGQNCLIQSGTVVGADGFGYANDRGNWVKIPQIGRVIIGDRVEIGACTTIDRGALDDTIIGNGVIIDNQCQIAHNVVIGDNTAVAGGVIMAGSLKIGRYCMIGGASVINGHMEICDKVTVTGMGMVMRPITEPGVYSSGIPLQPNKVWRKTAALVMNIDDMSKRLKSLERKVNQQD | 0.585 ± 0.51 | < 0.00658 |
| lpxD V201A (protein) MPSIRLADLAQQLDAELHGDGDIVITGVASMQSAQTGHITFMVNPKYREHLGLCQASAVVMTQDDLPFAKSAALVVKNPYLTYARMAQILDTTPQPAQNIAPSAVIDATAKLGNNVSIGANAVIESGVELGDNVIIGAGCFVGKNSKIGAGSRLWANVTIYHEIQIGQNCLIQSGTVVGADGFGYANDRGNWVKIPQIGRAIIGDRVEIGACTTIDRGALDDTIIGNGVIIDNQCQIAHNVVIGDNTAVAGGVIMAGSLKIGRYCMIGGASVINGHMEICDKVTVTGMGMVMRPITEPGVYSSGIPLQPNKVWRKTAALVMNIDDMSKRLKSLERKVNQQD | 0.195 ± 0.1 | < 0.00622 |
| lpxD V201W (protein) MPSIRLADLAQQLDAELHGDGDIVITGVASMQSAQTGHITFMVNPKYREHLGLCQASAVVMTQDDLPFAKSAALVVKNPYLTYARMAQILDTTPQPAQNIAPSAVIDATAKLGNNVSIGANAVIESGVELGDNVIIGAGCFVGKNSKIGAGSRLWANVTIYHEIQIGQNCLIQSGTVVGADGFGYANDRGNWVKIPQIGRWIIGDRVEIGACTTIDRGALDDTIIGNGVIIDNQCQIAHNVVIGDNTAVAGGVIMAGSLKIGRYCMIGGASVINGHMEICDKVTVTGMGMVMRPITEPGVYSSGIPLQPNKVWRKTAALVMNIDDMSKRLKSLERKVNQQD | 0.476 ± 0.27 | < 0.0095 |
| lpxD V201D (protein) MPSIRLADLAQQLDAELHGDGDIVITGVASMQSAQTGHITFMVNPKYREHLGLCQASAVVMTQDDLPFAKSAALVVKNPYLTYARMAQILDTTPQPAQNIAPSAVIDATAKLGNNVSIGANAVIESGVELGDNVIIGAGCFVGKNSKIGAGSRLWANVTIYHEIQIGQNCLIQSGTVVGADGFGYANDRGNWVKIPQIGRDIIGDRVEIGACTTIDRGALDDTIIGNGVIIDNQCQIAHNVVIGDNTAVAGGVIMAGSLKIGRYCMIGGASVINGHMEICDKVTVTGMGMVMRPITEPGVYSSGIPLQPNKVWRKTAALVMNIDDMSKRLKSLERKVNQQD | 0.905 ± 0.95 | < 0.0109 |
| lpxD M255A (protein) MPSIRLADLAQQLDAELHGDGDIVITGVASMQSAQTGHITFMVNPKYREHLGLCQASAVVMTQDDLPFAKSAALVVKNPYLTYARMAQILDTTPQPAQNIAPSAVIDATAKLGNNVSIGANAVIESGVELGDNVIIGAGCFVGKNSKIGAGSRLWANVTIYHEIQIGQNCLIQSGTVVGADGFGYANDRGNWVKIPQIGRVIIGDRVEIGACTTIDRGALDDTIIGNGVIIDNQCQIAHNVVIGDNTAVAGGVIAAGSLKIGRYCMIGGASVINGHMEICDKVTVTGMGMVMRPITEPGVYSSGIPLQPNKVWRKTAALVMNIDDMSKRLKSLERKVNQQD | 0.293 ± 0.19 | < 0.00909 |
| lpxD M255Q (protein) MPSIRLADLAQQLDAELHGDGDIVITGVASMQSAQTGHITFMVNPKYREHLGLCQASAVVMTQDDLPFAKSAALVVKNPYLTYARMAQILDTTPQPAQNIAPSAVIDATAKLGNNVSIGANAVIESGVELGDNVIIGAGCFVGKNSKIGAGSRLWANVTIYHEIQIGQNCLIQSGTVVGADGFGYANDRGNWVKIPQIGRVIIGDRVEIGACTTIDRGALDDTIIGNGVIIDNQCQIAHNVVIGDNTAVAGGVIQAGSLKIGRYCMIGGASVINGHMEICDKVTVTGMGMVMRPITEPGVYSSGIPLQPNKVWRKTAALVMNIDDMSKRLKSLERKVNQQD | 0.216 ± 0.03 | < 0.0137 |
